According to the supplement of paper PMC11741623:
This is one part of the list. Interaction screen of human proteins with wild-type SARS-CoV-2 proteins by split-DHFR complementation in yeast, 1 µg/mL methotrexate. Value = fitness of the pair (three or more lineages) minus that of the viral protein without a human partner, on a scale set by negative (0) and fused positive (1) controls, mean of up to three cultures; higher = more likely to interact. Active = false discovery rate below 0.05 (one-sided t-test) in at least one culture. Nearly all pairs are not hits, and differences among them are mostly noise (correlation between cultures about 0.3); most hits were seen in one culture only. Human sequences are the Swiss-Prot entries looked up by gene name; the clone may be another isoform. NSP2 values were corrected by the authors for a growth advantage. Listed are human proteins with a hit and a random twelfth of the others.

B1: HSFY1, Q96LI6 (protein)
chain: MAHVSSETQDVSPKDELTASEASTRSPLCEHTFPGDSDLRSMIEEHAFQVLSQGSLLESPSYTVCVSEPDKDDDFLSLNFPRKLWKIVESDQFKSISWDENGTCIVINEELFKKEILETKAPYRIFQTDAIKSFVRQLNLYGFSKIQQNFQRSAFLATFLSEEKESSVLSKLKFYYNPNFKRGYPQLLVRVKRRIGVKNASPISTLFNEDFNKKHFRAGANMENHNSALAAEASEESLFSASKNLNMPLTRESSVRQIIANSSVPIRSGFPPPSPSTSVGPSEQIATDQHAILNQLTTIHMHSHSTYMQARGHIVNFITTTTSQYHIISPLQNGYFGLTVEPSAVPTRYPLVSVNEAPYRNMLPAGNPWLQMPTIADRSAAPHSRLALQPSPLDKYHPNYN
B2: RDH12, Q96NR8 (protein)
chain: MLVTLGLLTSFFSFLYMVAPSIRKFFAGGVCRTNVQLPGKVVVITGANTGIGKETARELASRGARVYIACRDVLKGESAASEIRVDTKNSQVLVRKLDLSDTKSIRAFAEGFLAEEKQLHILINNAGVMMCPYSKTADGFETHLGVNHLGHFLLTYLLLERLKVSAPARVVNVSSVAHHIGKIPFHDLQSEKRYSRGFAYCHSKLANVLFTRELAKRLQGTGVTTYAVHPGVVRSELVRHSSLLCLLWRLFSPFVKTAREGAQTSLHCALAEGLEPLSGKYFSDCKRTWVSPRARNNKTAERLWNVSCELLGIRWE
B3: FAM174A, Q8TBP5 (protein)
chain: MKASQCCCCLSHLLASVLLLLLLPELSGPLAVLLQAAEAAPGLGPPDPRPRTLPPLPPGPTPAQQPGRGLAEAAGPRGSEGGNGSNPVAGLETDDHGGKAGEGSVGGGLAVSPNPGDKPMTQRALTVLMVVSGAVLVYFVVRTVRMRRRNRKTRRYGVLDTNIENMELTPLEQDDEDDDNTLFDANHPRR
B4: SHANK2-AS3, Q9BTD1 (protein)
chain: MAQLPSAQMPAPRTQPDLILVHPVLALSGRAPSILCSVPWDACELLATAMWWKTRILWGVFLISRTRPPAPMQILILTLDPSEGEVCCKKRKPGQTGRNRVRMTTATCKPGGEASGETSPGTP
B5: CCDC43, Q96MW1 (protein)
chain: MAAPSEVAAIAPGEGDGGGGGFGSWLDGRLEALGVDRAVYGAYILGILQEEEEEEKLDALQGILSAFLEEDSLLNICKEIVERWSETQNVVTKVKKEDEVQAIATLIEKQAQIVVKPRMVSEEEKQRKAALLAQYADVTDEEDEADEKDDSGATTMNIGSDKLLFRNTNVEDVLNARKLERDSLRDESQRKKEQDKLQRERDKLAKQERKEKEKKRTQRGERKR

target: SARS-CoV-2 E; experiment: yeast fitness gain over the viral ORF with no human partner (scaled fitness); higher = more likely to interact
Experimental: (§1)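 Split mouse DHFR complementation in pooled diploid yeast: human ORFeome clones carry one fragment and viral ORFs the other; barcoded lineages compete in 1 µg/mL methotrexate and fitness is read by barcode sequencing in up to three cultures.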

Binder	yeast fitness gain
B1	inactive: -0.0146
B2	inactive: 0.0323
B3	inactive: -0.0255
B4	inactive: 0.0765
B5	inactive: 0.0127

target: SARS-CoV-2 NSP9; experiment: as above
Experimental: as §1

Binder	yeast fitness gain
B1	inactive: 0.00544
B2	inactive: 0.076
B3	inactive: -0.0504
B4	inactive: -0.0442
B5	inactive: 0.0187

target: SARS-CoV-2 ORF3A; experiment: as above
Experimental: as §1

Binder	yeast fitness gain
B1	inactive: 0.0316
B2	inactive: -0.036
B3	inactive: -0.0377
B4	inactive: 0.0997
B5	inactive: -0.00515

target: SARS-CoV-2 M; experiment: as above
Experimental: as §1

Binder	yeast fitness gain
B2	inactive: 0.0203
B3	inactive: 0.0297
B4	inactive: 0.0466
B5	inactive: 0.052

target: SARS-CoV-2 N; experiment: as above
Experimental: as §1

Binder	yeast fitness gain
B2	inactive: 0.0598
B3	inactive: 0.0937
B4	inactive: 0.0417

target: SARS-CoV-2 NSP1; experiment: as above
Experimental: as §1

Binder	yeast fitness gain
B2	inactive: 0.0381
B3	inactive: 0.0209
B4	inactive: 0.0289
B5	inactive: -0.00633

target: SARS-CoV-2 NSP10; experiment: as above
Experimental: as §1

Binder	yeast fitness gain
B2	inactive: 0.0379
B3	inactive: -0.0219
B4	inactive: 0.0166
B5	inactive: 0.0461

target: SARS-CoV-2 NSP12; experiment: as above
Experimental: as §1

Binder	yeast fitness gain
B2	inactive: -0.0245
B3	inactive: 0.0351
B4	inactive: -0.0243
B5	inactive: 0.0464

target: SARS-CoV-2 NSP13; experiment: as above
Experimental: as §1

Binder	yeast fitness gain
B2	inactive: 0.0122
B3	inactive: -0.00381
B4	inactive: -0.0164
B5	inactive: 0.0354

target: SARS-CoV-2 NSP14; experiment: as above
Experimental: as §1

Binder	yeast fitness gain
B2	inactive: -0.3
B3	inactive: 0.0164
B4	inactive: 0.0296
B5	inactive: -0.0155

target: SARS-CoV-2 NSP15; experiment: as above
Experimental: as §1

Binder	yeast fitness gain
B2	inactive: 0.0306
B3	inactive: -0.0271
B4	inactive: -0.0322
B5	inactive: 0.109

target: SARS-CoV-2 NSP16; experiment: as above
Experimental: as §1

Binder	yeast fitness gain
B2	inactive: -0.0734
B3	inactive: -0.116
B4	inactive: -0.00314
B5	inactive: 0.091

target: SARS-CoV-2 NSP2; experiment: as above
Experimental: as §1

Binder	yeast fitness gain
B2	inactive: -0.124
B3	inactive: -0.109
B4	inactive: -0.102
B5	inactive: -0.00409

target: SARS-CoV-2 NSP4; experiment: as above
Experimental: as §1

Binder	yeast fitness gain
B2	inactive: -0.0315
B3	inactive: 0.00336
B4	inactive: 0.111
B5	inactive: 0.0325

target: SARS-CoV-2 NSP5; experiment: as above
Experimental: as §1

Binder	yeast fitness gain
B2	inactive: 0.016
B3	inactive: 0.0464
B4	inactive: 0.0325
B5	inactive: -0.107

target: SARS-CoV-2 NSP6; experiment: as above
Experimental: as §1

Binder	yeast fitness gain
B2	inactive: 0.0377
B3	inactive: 0.0575
B4	inactive: 0.0173
B5	inactive: -0.323

target: SARS-CoV-2 NSP7; experiment: as above
Experimental: as §1

Binder	yeast fitness gain
B2	inactive: 0.0192
B3	inactive: 0.0474
B4	inactive: 0.00929
B5	inactive: 0.0927

target: SARS-CoV-2 NSP8; experiment: as above
Experimental: as §1

Binder	yeast fitness gain
B2	inactive: 0.0445
B3	inactive: 0.0711
B4	inactive: -0.0127
B5	inactive: -0.0517

target: SARS-CoV-2 ORF10; experiment: as above
Experimental: as §1

Binder	yeast fitness gain
B2	inactive: 0.0262
B3	inactive: 0.0297
B4	inactive: 0.0483
B5	inactive: -0.0827

target: SARS-CoV-2 ORF3B; experiment: as above
Experimental: as §1

Binder	yeast fitness gain
B2	inactive: 0.0432
B3	inactive: 0.034
B4	inactive: 0.0358
B5	inactive: 0.0465

target: SARS-CoV-2 ORF6; experiment: as above
Experimental: as §1

Binder	yeast fitness gain
B2	inactive: 0.0276
B3	inactive: 0.0276
B4	inactive: 0.0305
B5	inactive: 0.0389

target: SARS-CoV-2 ORF7A; experiment: as above
Experimental: as §1

Binder	yeast fitness gain
B2	inactive: 0.0705
B3	inactive: 0.0258
B4	inactive: 0.0152
B5	inactive: 0.0516

target: SARS-CoV-2 ORF7B; experiment: as above
Experimental: as §1

Binder	yeast fitness gain
B2	active: 0.1
B3	inactive: 0.0617
B4	inactive: -0.0553
B5	inactive: -0.085

target: SARS-CoV-2 ORF8; experiment: as above
Experimental: as §1

Binder	yeast fitness gain
B2	inactive: -0.0257
B3	inactive: 0.0362
B4	inactive: -0.0312
B5	inactive: -0.0235

target: SARS-CoV-2 ORF9B; experiment: as above
Experimental: as §1

Binder	yeast fitness gain
B2	inactive: 0.00221
B3	inactive: 0.0134
B4	inactive: 0.0537
B5	inactive: 0.0433

target: SARS-CoV-2 ORF9Bwu (the 73-codon ORF); experiment: as above
Experimental: as §1

Binder	yeast fitness gain
B2	inactive: 0.0573
B3	inactive: 0.079
B4	inactive: 0.032
B5	inactive: -0.0354

target: SARS-CoV-2 S; experiment: as above
Experimental: as §1

Binder	yeast fitness gain
B2	inactive: 0.00913
B3	inactive: 0.0721
B4	inactive: -0.0181
B5	inactive: -0.032
